Data reported in PubChem BioAssay AID1508642 (National Center for Advancing Translational Sciences (NCATS), 2021).
Out of some 43,000 compounds screened, about 200 (0.47%) were called active. About 12% were inconclusive and are not listed. Calls come from the whole dose curve; as a rule, active = well fitted cell-killing curve with a large enough effect; inconclusive = small, poorly fitted or top-dose-only effect, or effect the other way; inactive = flat fitted curve, though single readings scatter. This is one part of the list.

Test: Cell viability qHTS assay in S16 Pmp22-F2sN cells; note: nearly all actives have a fitted effect of over 65% in size
Settings: S16 Pmp22-F2sN Schwann cells viability, CellTiter-Glo, 24 h; series mostly up to 57.5 µM; activity change, negative = cytotoxicity: at the top concentration
In short: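 Used to flag compounds lowering reporter output through toxicity, this quantitative HTS measures ATP-based CellTiter-Glo luminescence in S16 Pmp22-F2sN Schwann cells after 24 h compound exposure at 37C.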
% is set by controls: 0 for no effect and ±100 for the full control effect.

Row | SMILES | activity change, negative = cytotoxicity
1 | COCCNC(=O)c1ccc2c(c1)NC(=O)C(CS(=O)(=O)Cc1ccc(F)cc1Cl)N2 (stereo not drawn) | inactive: 2.48%
2 | COc1ccc(NC(=O)c2c(NC(=O)c3cccc(C)c3)sc3c2CCC3)cc1 | inactive: 5.1%
3 | COc1cccc(CNC(=O)c2ccc3oc(=O)n(Cc4ccccc4)c3c2)c1 | inactive: -16.9%
4 | COc1ccccc1Nc1ncc2c(n1)CCN(CC(C)C)C2 | inactive: 12.7%
5 | O=C(CN1C=NS(=O)(=O)c2ccccc21)Nc1ccc(Br)cc1 | inactive: -1.51%
6 | Cc1ccccc1CNC(=O)CCCn1ncn2c(cc3occc32)c1=O | inactive: -15.4%
7 | COc1ccc(NC(=O)CSC2=Nc3ccccc3C3=NC(Cc4ccccc4)C(=O)N23)cc1 (stereo not drawn) | inactive: -0.425%
8 | O=C(CSc1nc2c(c(=O)[nH]1)CCC2)Nc1cccc(O)c1 | inactive: -1.45%
9 | COc1ccc(OC)c(NC(=O)Nc2cccc(OCc3cc(=O)n4cc(C)ccc4n3)c2)c1 | inactive: 15.3%
10 | Cc1ccc(NC(=O)CSc2nnc(C)s2)c(C)c1 | inactive: 23.4%
11 | COc1ccc(NC(=O)C2CCN(c3nc4ccccc4[nH]3)CC2)cc1OC | inactive: 17.4%
12 | CCCCN1C(=O)C(NC(=O)c2ccc(C(C)(C)C)cc2)(C(F)(F)F)C(C(=O)OC)=C1C (stereo not drawn) | inactive: -3.05%
13 | Cc1cc(O)c(C(c2ccc(F)cc2)N2CCN(c3ccccc3)CC2)c(=O)n1Cc1ccco1 (stereo not drawn) | inactive: -8.11%
14 | CCn1c(=O)c2sccc2n2c(CCCC(=O)Nc3ccc(C)cc3)nnc12 | inactive: -0.685%
15 | COc1cc(NC(=O)c2c(C)nn(-c3ccc(F)cc3)c2-n2cccc2)cc(OC)c1 | inactive: 17.8%
16 | Cc1ccc(N2CCN(c3ncnc4onc(-c5ccc(F)cc5)c34)CC2)c(C)c1 | inactive: -4.61%
17 | COC(=O)c1ccccc1NC(=O)CSc1cc(-c2ccccc2)nc(C)n1 | inactive: -4.1%
18 | COc1ccc(NC(=O)N2CCC(CN3CCCC3)CC2)c(OC)c1 | inactive: -14.2%
19 | O=C(CCn1c(=O)c2cccn2c2ccc(F)cc21)NCCc1ccc(Cl)cc1 | inactive: -1.69%
20 | O=C(C1CCCN(S(=O)(=O)c2cccc3nonc23)C1)N1CCN(c2ccccc2F)CC1 (stereo not drawn) | inactive: 2.13%
21 | Clc1ccc(-c2ccc(CNCCSc3nnnn3-c3ccccc3)o2)cc1 | inactive: -1.56%
22 | COc1ccc(C)cc1NC(=O)CSc1nc(=O)n(Cc2cccnc2)c2c1CCC2 | inactive: 9.25%
23 | Clc1cccc(-n2ncc3c(NCCC4=CCCCC4)ncnc32)c1 | inactive: 0.831%
24 | COc1ccc(OC)c(C(=O)CN2C(=O)N(c3cc(C)cc(C)c3)S(=O)(=O)c3ccccc32)c1 | inactive: -13.2%
25 | CCN1CCN(c2oc(-c3ccc(COc4ccc(OC)cc4)o3)nc2C#N)CC1 | inactive: 13%

Row | SMILES | activity change, negative = cytotoxicity
26 | CC(C)(C)OC(=O)N1CCC(c2c(C(=O)NCCN3CCOCC3)cnn2-c2cccc(F)c2)CC1 | inactive: 1.2%
27 | CC(=O)c1ccc(N2C(=O)N(Cc3ccc(F)cc3)c3ccccc3S2(=O)=O)cc1 | inactive: 25.9%
28 | CCN(CC)S(=O)(=O)c1nnc(NC(=O)COc2ccccc2)s1 | inactive: -5.45%
29 | Cc1ccc(S(=O)(=O)c2cn(C)c3cc(N4CCOCC4)c(F)cc3c2=O)c(C)c1 | inactive: -16.5%
30 | COc1ccc(N2CCN(c3ncnc4c3nc3n4CCCCC3)CC2)cc1 | inactive: -17.8%
31 | Oc1c(C(c2ccc(F)cc2)N2CCCC2)sc2nc(-c3ccco3)nn12 (stereo not drawn) | inactive: 12.2%
32 | Cc1ccc(CCNC(=O)C2COc3ccccc3C2)cc1 (stereo not drawn) | inactive: -12.6%
33 | Cc1cc(C)n(-c2nc3cc(Cl)ccc3nc2N2CCN(c3cccc(C)c3C)CC2)n1 | inactive: 3.56%
34 | COc1ccccc1CNS(=O)(=O)c1c(C(=O)N2CCC(C)CC2)c(C)n(C)c1C | inactive: 2.52%
35 | Cc1ccc(CCNC(=O)Cn2ncc3c([nH]c4ccccc43)c2=O)cc1 | inactive: 9.6%
36 | Cc1ccc2c(c1)-c1onc(C(=O)N3CCN(c4cc(C)ccc4C)CC3)c1CO2 | inactive: -4.1%
37 | CC(=O)c1ccc(NC(=O)NCCc2c[nH]c3ccccc23)cc1 | inactive: 9.08%
38 | CCCCCn1c(=O)[nH]c2cc(C(=O)Nc3ccc(F)cc3)ccc2c1=O | inactive: -0.794%
39 | CCOC(=O)C1CCN(S(=O)(=O)c2cc(-c3cc(C)no3)ccc2C)CC1 | inactive: 10.6%
40 | Cc1cccc(-c2nc3scc(CCNC(=O)c4ccccc4Cl)n3n2)c1 | inactive: -14.4%
41 | Cc1cccc(NC(=O)CSc2nnc(CNC(=O)c3c(F)cccc3Cl)o2)c1C | inactive: 0.131%
42 | CC(C)c1nn2c(=O)cc(COC(=O)c3ccc(NC(=O)CCc4ccccc4)cc3)nc2s1 | inactive: -1.41%
43 | CCC1CN(C(=O)N2CCC(C(=O)NCc3cccs3)CC2)c2cc(C)ccc2O1 (stereo not drawn) | inactive: -16.8%
44 | Cc1ccc2nc(N3CCN(c4cccc(C)c4C)CC3)c3nnnn3c2c1 | inactive: 5.83%
45 | COc1ccc(NC(=O)Cc2csc(C)n2)cc1 | inactive: 1.12%
46 | CC(C)(C)C(=O)Nc1c(C(=O)N2CCN(c3ccc(F)cc3)CC2)oc2ccccc12 | inactive: -4.87%
47 | CCc1cccc(NC(=O)CSc2ncc3c(n2)-c2ccccc2N(Cc2ccccc2C)S3(=O)=O)c1 | inactive: 1.52%
48 | CCOc1ccc(-c2cc(C(=O)NCc3ccccc3)c3c(-c4ccc(CC)cc4)[nH]nc3n2)cc1 | inactive: -0.882%
49 | Cc1ccccc1Nc1c2c(nc3nncn13)CCC2 | inactive: 8.06%
50 | Cc1c(C)n(C)c2ccc(C(=O)NCCCN3CCCCC3)cc12 | inactive: -3.53%

Row | SMILES | activity change, negative = cytotoxicity
51 | Cc1ccc(-c2c(C(=O)NCCc3ccc(Cl)cc3)oc(=O)c3ccccc23)cc1 | inactive: -0.879%
52 | CCc1ccc(-c2ccc(C(=O)Oc3ccc(Br)cc3)cc2)nc1 | inactive: 13.7%
53 | COc1ccc(CNc2ncnc3c2c(-c2ccccc2)cn3-c2ccccc2)cc1 | inactive: 4.02%
54 | CCN(CC)S(=O)(=O)c1ccc(C(=O)N=c2sc3cccc(OC)c3n2C)cc1 | inactive: 2.45%
55 | Cc1ccc(S(=O)(=O)c2nc(-c3ccc(Cl)cc3)oc2N2CCCCCC2)cc1 | inactive: 0.131%
56 | Cc1ccc(-c2nc(SCc3ccc(Br)cc3)n3[nH]c(=O)cc3n2)cc1 | inactive: -2.45%
57 | COCCc1nn2c(=O)cc(COC(=O)c3ccc(C(C)(C)C)cc3)nc2s1 | inactive: -2.53%
58 | Cc1ccc(Cn2ccc(NC(=O)c3cc(-c4ccc(Cl)c(Cl)c4)on3)n2)cc1 | inactive: -1.22%
59 | Cc1ccc(-n2ncc(C(=O)N3CCN(Cc4ccccc4)CC3)c2C2CCN(C(=O)OC(C)(C)C)CC2)c(C)c1 | inactive: 3.5%
60 | CCOC(=O)c1ccccc1NC(=O)Cn1c(=O)n(Cc2ccccc2)c(=O)c2c(C)c(C)sc21 | inactive: -6.57%
61 | CCN(c1ccc(Cl)cc1)S(=O)(=O)c1nnc(NC(=O)C(C)C)s1 | inactive: 17.2%
62 | CCC(=O)Oc1ccc(-c2nc3ccccc3c(=O)o2)cc1 | inactive: -0.108%
63 | COc1ccc(-c2nnc(SCC(=O)Nc3ccc(F)cc3)s2)cc1 | inactive: 4.57%
64 | CN(C)c1ccc(C(CNS(=O)(=O)c2ccc(Br)cc2)N2CCOCC2)cc1 (stereo not drawn) | inactive: 15.1%
65 | O=c1c2sc3ccccc3c2n(Cc2ccccc2F)c(=O)n1CCc1ccccc1 | inactive: 1.08%
66 | Cc1ccc(C)c(S(=O)(=O)c2nnn3c2nc(NCc2ccc4c(c2)OCO4)c2sccc23)c1 | inactive: -4.01%
67 | CN(C)c1ccc(NC(=O)Cn2c(SCc3ccccc3F)nc3cccnc32)cc1 | inactive: -1.39%
68 | C=Cc1ccc(Cn2c(=O)n(-c3cccc(C)c3)c(=O)c3c2c2cc(C)ccc2n3C)cc1 | inactive: 12.3%
69 | Cc1ccc(S(=O)(=O)c2c(C)nn(-c3ccccc3)c2OC(=O)c2ccccc2F)cc1 | inactive: 0.353%
70 | O=C(Nc1ccc2c(c1)N(C1CCCC1)C(=O)c1ccccc1S2)c1ccc(F)cc1 | inactive: -12.5%
71 | O=S(=O)(c1cccc(Cl)c1)c1nnn2c1nc(NC1CCCCCC1)c1sccc12 | inactive: -5.96%
72 | CCOc1ccc(CCNC(=O)c2ccc3nc(CC)c(CC)nc3c2)cc1 | inactive: -9.18%
73 | Fc1ccc(CNc2nc3ccc(Cl)cc3n3nnnc23)cc1 | inactive: -1.81%
74 | COc1cccc(-n2c(=O)c3sc4ccccc4c3n(CC(=O)Nc3cccc(Cl)c3)c2=O)c1 | inactive: 22.2%
75 | CCOc1ccc(OCC(=O)Nc2c(C(=O)Nc3ccc(C)cc3)oc3ccccc23)cc1 | inactive: 2.03%

Row | SMILES | activity change, negative = cytotoxicity
76 | CSc1nn(Cc2ccc(Br)cc2)c(N(C(C)=O)C(C)=O)c1S(=O)(=O)c1ccccc1 | inactive: 4.93%
77 | CCn1c(CN2CCOCC2)nc2cc(NC(=O)c3cc(OC)c(OC)c(OC)c3)ccc21 | inactive: -8.69%
78 | CCc1ccccc1NC(=O)C1CCCN(c2nnc(-n3c(C)ccc3C)s2)C1 (stereo not drawn) | inactive: -12.1%
79 | CCCCSCCCNC(=O)C1CCC(CNS(=O)(=O)c2ccccc2)CC1 (stereo not drawn) | inactive: 5.71%
80 | CC1CCN(C(=O)Cn2ncc3c4ccccc4n(Cc4ccc(Cl)cc4)c3c2=O)CC1 | inactive: -5.4%
81 | COc1ccc(-c2cc(C(=O)NCc3ccccc3)c3c(-c4ccccc4)[nH]nc3n2)cc1 | inactive: -1.23%
82 | COc1ccccc1N1CCN(C(=O)Cc2c(C(=O)O)c(C)cn2C)CC1 | inactive: 9.22%
83 | COc1ccc(CCNC(=O)C(=O)NCC(c2ccco2)S(=O)(=O)c2ccccc2)cc1OC (stereo not drawn) | inactive: 0.181%
84 | COc1ccc(CCNC(=O)CS(=O)Cc2nc(-c3ccc(C)cc3)oc2C)c(OC)c1 (stereo not drawn) | inactive: -9.03%
85 | CCc1cccc(C)c1NC(=O)CSc1nnc(N)s1 | inactive: 3.6%
86 | CCOc1ccccc1NS(=O)(=O)c1cnc(N)nc1 | inactive: 1.59%
87 | Cc1ccccc1N1CCN(S(=O)(=O)c2nnc(NC(=O)c3ccc(Cl)cc3)s2)CC1 | inactive: -1.46%
88 | COc1ccc(-n2c(SCc3ccccc3F)nc3c([nH]c4ccccc43)c2=O)cc1 | inactive: 20.9%
89 | O=C(Cn1cc(S(=O)(=O)Cc2ccc(F)cc2)c2ccccc21)NCc1ccccc1Cl | inactive: -7.24%
90 | O=C(NCCCc1nc2ccccc2n1Cc1ccc(Cl)cc1)c1ccco1 | inactive: -17%
91 | Cc1ccccc1CSc1nnc2[nH]c(=O)cc(C)n12 | inactive: -1.76%
92 | Cc1oc2ncn(CC(C)C)c(=O)c2c1C(=O)NCCCN(Cc1ccccc1)C(C)C | inactive: 10.5%
93 | CCOc1ccc(NC(=O)CSc2nnc(-c3ccc(C)cc3)c(-c3ccc(C)cc3)n2)cc1 | inactive: -0.0432%
94 | O=C(NC1CC(=O)N(c2ccc(Cl)cc2)C1)c1ccc(S(=O)(=O)N2CCCC2)cc1 (stereo not drawn) | inactive: -19.2%
95 | CCCC12CN3CC(C)(CN(C1)C3c1cn(C)c3ccccc13)C2=O (stereo not drawn) | inactive: 1.32%
96 | CCc1cccc(NCc2ccccc2-c2nnc(-c3ccccc3Cl)o2)c1 | inactive: 2.43%
97 | Cc1ccc(NC(=O)N2CCC(CN3CCC(C)CC3)CC2)cc1F | inactive: -5.31%
98 | COc1ccc(-c2cc(C(F)(F)F)nc(SCC(=O)NCCc3ccc(OC)c(OC)c3)n2)cc1 | inactive: 22.7%
